# From PMC9911399, “Two distinct binding modes provide the RNA-binding protein RbFox with extraordinary sequence specificity”
# Changes are numbered by the printed parent chain; changes in the protein carry UniProt numbers. The list shows a part of the results.
# T1: RBFOX1 RRM RbFoxmut (Fox-RRM*) (Homo sapiens, UniProt Q9NWB1 109-208, R118D;E147R;N151S;E152T)
# T1 sequence: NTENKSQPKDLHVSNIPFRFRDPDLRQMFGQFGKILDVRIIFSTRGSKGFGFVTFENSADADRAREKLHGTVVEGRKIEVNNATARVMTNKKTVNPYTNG
# B1: CCUUGUA (DNA:RNA)
# RNA: GGGAGACCGGAAUUCAGAUUGUCCCCUUGUAUUAAAUCCCGUCGUAGCCACCA
# DNA 1: CAATCTGAATTCCGGTCTCCC
# DNA 2: TGGTGGCTACGACGGGATT
# B2: UCUAGUU (DNA:RNA)
# RNA: B1 RNA with C25U, U28A, A31U
# DNA 1: CAATCTGAATTCCGGTCTCCC
# DNA 2: TGGTGGCTACGACGGGATT
# B3: GGCCCGU (DNA:RNA)
# RNA: GGGAGACCGGAAUUCAGAUUGUCCGGCCCGUUUAAAUCCCGUCGUAGCCACCA
# DNA 1: CAATCTGAATTCCGGTCTCCC
# DNA 2: TGGTGGCTACGACGGGATT
# B4: ACGGACA (DNA:RNA)
# RNA: B1 RNA with C25A, U27G, U28G, G29A, U30C
# DNA 1: CAATCTGAATTCCGGTCTCCC
# DNA 2: TGGTGGCTACGACGGGATT
# B5: CCUUAUA (DNA:RNA)
# RNA: B1 RNA with G29A
# DNA 1: CAATCTGAATTCCGGTCTCCC
# DNA 2: TGGTGGCTACGACGGGATT
# B6: UGCAGUC (DNA:RNA)
# RNA: B1 RNA with C25U, C26G, U27C, U28A, A31C
# DNA 1: CAATCTGAATTCCGGTCTCCC
# DNA 2: TGGTGGCTACGACGGGATT
# B7: CGAUAUG (DNA:RNA)
# RNA: B1 RNA with C26G, U27A, G29A, A31G
# DNA 1: CAATCTGAATTCCGGTCTCCC
# DNA 2: TGGTGGCTACGACGGGATT
# B8: AAAGCAG (DNA:RNA)
# RNA: B3 RNA with G25A, G26A, C27A, C28G, G30A, U31G
# DNA 1: CAATCTGAATTCCGGTCTCCC
# DNA 2: TGGTGGCTACGACGGGATT
# B9: GUGUUCU (DNA:RNA)
# RNA: B3 RNA with G26U, C27G, C28U, C29U, G30C
# DNA 1: CAATCTGAATTCCGGTCTCCC
# DNA 2: TGGTGGCTACGACGGGATT
# B10: CCGUUCU (DNA:RNA)
# RNA: B1 RNA with U27G, G29U, U30C, A31U
# DNA 1: CAATCTGAATTCCGGTCTCCC
# DNA 2: TGGTGGCTACGACGGGATT
# B11: ACGAAUA (DNA:RNA)
# RNA: B1 RNA with C25A, U27G, U28A, G29A
# DNA 1: CAATCTGAATTCCGGTCTCCC
# DNA 2: TGGTGGCTACGACGGGATT
# B12: CGUAGUU (DNA:RNA)
# RNA: B1 RNA with C26G, U28A, A31U
# DNA 1: CAATCTGAATTCCGGTCTCCC
# DNA 2: TGGTGGCTACGACGGGATT
# B13: GGCAAAA (DNA:RNA)
# RNA: B3 RNA with C28A, C29A, G30A, U31A
# DNA 1: CAATCTGAATTCCGGTCTCCC
# DNA 2: TGGTGGCTACGACGGGATT
# B14: GAAGAGC (DNA:RNA)
# RNA: B3 RNA with G26A, C27A, C28G, C29A, U31C
# DNA 1: CAATCTGAATTCCGGTCTCCC
# DNA 2: TGGTGGCTACGACGGGATT
# B15: UGUAGUG (DNA:RNA)
# RNA: B1 RNA with C25U, C26G, U28A, A31G
# DNA 1: CAATCTGAATTCCGGTCTCCC
# DNA 2: TGGTGGCTACGACGGGATT
# B16: CGCCAGG (DNA:RNA)
# RNA: B3 RNA with G25C, C29A, U31G
# DNA 1: CAATCTGAATTCCGGTCTCCC
# DNA 2: TGGTGGCTACGACGGGATT
# B17: GAUCCAU (DNA:RNA)
# RNA: B3 RNA with G26A, C27U, G30A
# DNA 1: CAATCTGAATTCCGGTCTCCC
# DNA 2: TGGTGGCTACGACGGGATT
# B18: UUUGACU (DNA:RNA)
# RNA: B1 RNA with C25U, C26U, U28G, G29A, U30C, A31U
# DNA 1: CAATCTGAATTCCGGTCTCCC
# DNA 2: TGGTGGCTACGACGGGATT
# B19: UCGCACU (DNA:RNA)
# RNA: B3 RNA with G25U, G26C, C27G, C29A, G30C
# DNA 1: CAATCTGAATTCCGGTCTCCC
# DNA 2: TGGTGGCTACGACGGGATT
# B20: GAUUUGU (DNA:RNA)
# RNA: B3 RNA with G26A, C27U, C28U, C29U
# DNA 1: CAATCTGAATTCCGGTCTCCC
# DNA 2: TGGTGGCTACGACGGGATT
# B21: AUUCAUG (DNA:RNA)
# RNA: B1 RNA with C25A, C26U, U28C, G29A, A31G
# DNA 1: CAATCTGAATTCCGGTCTCCC
# DNA 2: TGGTGGCTACGACGGGATT
# B22: GUAAUUU (DNA:RNA)
# RNA: B3 RNA with G26U, C27A, C28A, C29U, G30U
# DNA 1: CAATCTGAATTCCGGTCTCCC
# DNA 2: TGGTGGCTACGACGGGATT
# B23: UACUCCA (DNA:RNA)
# RNA: B1 RNA with C25U, C26A, U27C, G29C, U30C
# DNA 1: CAATCTGAATTCCGGTCTCCC
# DNA 2: TGGTGGCTACGACGGGATT
# B24: AUUGCAG (DNA:RNA)
# RNA: B1 RNA with C25A, C26U, U28G, G29C, U30A, A31G
# DNA 1: CAATCTGAATTCCGGTCTCCC
# DNA 2: TGGTGGCTACGACGGGATT
# B25: GUUUGAU (DNA:RNA)
# RNA: B1 RNA with C25G, C26U, U30A, A31U
# DNA 1: CAATCTGAATTCCGGTCTCCC
# DNA 2: TGGTGGCTACGACGGGATT
# B26: GGUCUGA (DNA:RNA)
# RNA: B3 RNA with C27U, C29U, U31A
# DNA 1: CAATCTGAATTCCGGTCTCCC
# DNA 2: TGGTGGCTACGACGGGATT
# B27: GUCUCUA (DNA:RNA)
# RNA: B1 RNA with C25G, C26U, U27C, G29C
# DNA 1: CAATCTGAATTCCGGTCTCCC
# DNA 2: TGGTGGCTACGACGGGATT
# B28: AUCCCCG (DNA:RNA)
# RNA: B3 RNA with G25A, G26U, G30C, U31G
# DNA 1: CAATCTGAATTCCGGTCTCCC
# DNA 2: TGGTGGCTACGACGGGATT
# B29: UAUCCUA (DNA:RNA)
# RNA: B1 RNA with C25U, C26A, U28C, G29C
# DNA 1: CAATCTGAATTCCGGTCTCCC
# DNA 2: TGGTGGCTACGACGGGATT
# B30: GUUUUCA (DNA:RNA)
# RNA: B1 RNA with C25G, C26U, G29U, U30C
# DNA 1: CAATCTGAATTCCGGTCTCCC
# DNA 2: TGGTGGCTACGACGGGATT
# B31: AAUACAA (DNA:RNA)
# RNA: B1 RNA with C25A, C26A, U28A, G29C, U30A
# DNA 1: CAATCTGAATTCCGGTCTCCC
# DNA 2: TGGTGGCTACGACGGGATT
# Target: T1, RBFOX1 RRM RbFoxmut (Fox-RRM*)
# Assay: EMSA; HiTS-Eq, 1 nM pool, 10 min; buffer printed only for the single-RNA assays: 10 mM Tris pH 7.5, 150 mM NaCl, 3.4 mM EDTA, 0.001% NP-40, 30 C
# Details: tags: His6 N-terminal (pET28a); label: 5' 32P
# Method in brief: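 Purified RbFox RRM, wild type or mutant, was incubated for 10 min in 50 µL with 1 nM of a 5′-radiolabelled RNA pool carrying 7 randomized nucleotides, whose flanks were annealed to DNA oligonucleotides, over a series of increasing protein concentrations. Unbound RNA was resolved on 8% native PAGE, cut out, reverse-transcribed, barcoded by PCR and sequenced on an Illumina HiSeq 2500. Relative association constants were derived from changes in read counts for each RNA species versus the control reaction and normalised to the cognate motif.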
row,Binder,binding signal
1,B1,0.206 KA relative to UGCAUGU
2,B2,0.109 KA relative to UGCAUGU
3,B3,0.133 KA relative to UGCAUGU
4,B4,0.0545 KA relative to UGCAUGU
5,B5,0.136 KA relative to UGCAUGU
6,B6,0.115 KA relative to UGCAUGU
7,B7,0.159 KA relative to UGCAUGU
8,B8,0.0873 KA relative to UGCAUGU
9,B9,0.0714 KA relative to UGCAUGU
10,B10,0.0688 KA relative to UGCAUGU
11,B11,0.127 KA relative to UGCAUGU
12,B12,0.141 KA relative to UGCAUGU
13,B13,0.0682 KA relative to UGCAUGU
14,B14,0.0784 KA relative to UGCAUGU
15,B15,0.682 KA relative to UGCAUGU
16,B16,0.0982 KA relative to UGCAUGU

row,Binder,binding signal
1,B17,0.0599 KA relative to UGCAUGU
2,B18,0.0705 KA relative to UGCAUGU
3,B19,0.0889 KA relative to UGCAUGU
4,B20,0.136 KA relative to UGCAUGU
5,B21,0.127 KA relative to UGCAUGU
6,B22,0.093 KA relative to UGCAUGU
7,B23,0.0704 KA relative to UGCAUGU
8,B24,0.106 KA relative to UGCAUGU
9,B25,0.2 KA relative to UGCAUGU
10,B26,0.293 KA relative to UGCAUGU
11,B27,0.122 KA relative to UGCAUGU
12,B28,0.0853 KA relative to UGCAUGU
13,B29,0.128 KA relative to UGCAUGU
14,B30,0.0853 KA relative to UGCAUGU
15,B31,0.0807 KA relative to UGCAUGU
